Some of the results follow. Single values of this set are uncertain. Values with irradiation are relative to irradiated vehicle.
The compounds below were run on A549-Dual (assay: NF-kB reporter (SEAP) activity, viability-corrected, relative to vehicle (fold change vs vehicle); higher = more activation of STING-IRF / NF-kB immune response reporter). Conditions: 0.3 µM; irradiation: 8 Gy/4 fr.
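Further: viability correction based on the alamar blue assay, with concentrations leaving 10% survival or less dropped.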

SMILES	NF-kB reporter
O=c1[nH]c(=O)n(C2CC(O)C(CO)O2)cc1F (stereo not drawn) [Floxuridine]	1.72
CC1(C)CCC(CN2CCN(c3ccc(C(=O)NS(=O)(=O)c4ccc(NCC5CCOCC5)c([N+](=O)[O-])c4)c(Oc4cnc5[nH]ccc5c4)c3)CC2)=C(c2ccc(Cl)cc2)C1 [Venetoclax (ABT-199, GDC-0199)]	0.782
Cc1ccc(NC(=O)c2ccc(CN3CCN(C)CC3)cc2)cc1Nc1nc(-c2cccnc2)cs1 [Masitinib (AB1010)]	1.06
CCc1cc(/C(C)=N/OCc2ccc(C3CCCCC3)c(C(F)(F)F)c2)ccc1CN1CC(C(=O)O)C1 [BAF312 (Siponimod)]	0.901
CN(C)C(=O)COC(=O)Cc1ccc(OC(=O)c2ccc(NC(=N)N)cc2)cc1.CS(=O)(=O)O [Camostat Mesilate]	0.722
Nc1nc(=S)c2[nH]cnc2[nH]1 [Thioguanine]	0.877
OCC1OC(Oc2cc(O)cc(/C=C/c3ccc(O)cc3)c2)C(O)C(O)C1O (stereo not drawn) [Polydatin]	1.56
COc1cc(N2CCC(N3CCN(C)CC3)CC2)ccc1Nc1ncc(Cl)c(Nc2ccccc2P(C)(C)=O)n1	0.819
Cc1cccn2c(=O)c(-c3nnn[n-]3)cnc12.[K+] [Pemirolast potassium]	1.14
Cc1cccc(N(C)C(=S)Oc2ccc3ccccc3c2)c1 [Tolnaftate]	0.96

Same assay, conditions: 0.3 µM; irradiation: none

SMILES	NF-kB reporter
C=CC(=O)Nc1cc(Nc2nccc(-c3cn(C)c4ccccc34)n2)c(OC)cc1N(C)CCN(C)C [Osimertinib (AZD9291)]	1.05
CC1CC2C3CCC4=CC(=O)C=CC4(C)C3(F)C(O)CC2(C)C1(O)C(=O)COP(=O)([O-])[O-].[Na+].[Na+] (stereo not drawn) [Dexamethasone Sodium Phosphate]	1.39
O=C(O)CCCN1CCC(OC(c2ccc(Cl)cc2)c2ccccn2)CC1.O=S(=O)(O)c1ccccc1 (stereo not drawn) [Bepotastine Besilate]	1.54
CC(=O)OC(C)C(C)C(=O)OCC12C3CC4(C)C(=CCC5C6(C)CCC(OC7OC(C(=O)[O][Na])C(OC8OC(CO)C(O)C(O)C8O)C(O)C7OC7OCC(O)C(O)C7O)C(C)(CO)C6CCC54C)C1CC(C)(C)C(O3)C2O (stereo not drawn) [Sodium Aescinate]	1.2
Nc1nc(CC(=O)Nc2ccc(CCNCC(O)c3ccccc3)cc2)cs1 (stereo not drawn) [Mirabegron]	0.88
O=C1OC(OC(=O)c2cccnc2Nc2cccc(C(F)(F)F)c2)c2ccccc21 (stereo not drawn) [Talniflumate]	0.868
CN1C(C(=O)Nc2ccccn2)=C(O)c2sccc2S1(=O)=O [Tenoxicam]	1.79
CCC(=O)NS(=O)(=O)c1ccc(-c2c(-c3ccccc3)noc2C)cc1 [Parecoxib]	0.98
CNCC(O)C(O)C(O)C(O)CO.Cc1c(Nc2ncccc2C(=O)O)cccc1C(F)(F)F [Flunixin Meglumin]	1.12
Cc1cncc(CN2CCC(=C3c4ccc(Cl)cc4CCc4cccnc43)CC2)c1.O=C(O)/C=C/C(=O)O [Rupatadine Fumarate]	1.1
COC(=O)CC(O)(CCCC(C)(C)O)C(=O)OC1C(OC)=CC23CCCN2CCc2cc4c(cc2C13)OCO4 (stereo not drawn) [Homoharringtonine]	0.812
CC(C(=O)[O-])c1ccc(CC2CCCC2=O)cc1.[Na+] (stereo not drawn) [Loxoprofen Sodium]	1.24
C=C1c2cccc(O)c2C(=O)C2=C(O)C3(O)C(=O)C(C(N)=O)=C(O)C(N(C)C)C3C(O)C12.Cl (stereo not drawn) [Methacycline HCl]	1.25
CC1CCC2(C(=O)OC3OC(COC4OC(CO)C(OC5OC(C)C(O)C(O)C5O)C(O)C4O)C(O)C(O)C3O)CCC3(C)C(=CCC4C5(C)CC(O)C(O)C(C)(CO)C5CCC43C)C2C1C (stereo not drawn) [Asiaticoside]	1.69
Nc1nc(F)nc2c1ncn2C1OC(CO)C(O)C1O (stereo not drawn) [Fludarabine]	1.07
O=NN(CCCl)C(=O)NC1CCCCC1 [Lomustine]	1.06
O=CC(O)C(O)C(O)C(O)COC1OC(CO)C(O)C(O)C1O (stereo not drawn) [Melibiose]	1.37
O.S=c1nc[nH]c2nc[nH]c12 [6-Mercaptopurine (6-MP) Monohydrate]	0.884
